According to paper PMC4336329 (PLoS ONE, 2015):
Screen size: about 310,000 compounds; about 2,200 (0.71%) showed an effect of 50% or more. The effect is printed as a negative number. The list shows a part of the results.

molecular target: human ether-à-go-go-related gene (hERG) potassium channel (human, UniProt Q12809); experiment: primary screen, population patch clamp on CHO cells stably expressing hERG
Sequence (Q12809 whole entry, looked up): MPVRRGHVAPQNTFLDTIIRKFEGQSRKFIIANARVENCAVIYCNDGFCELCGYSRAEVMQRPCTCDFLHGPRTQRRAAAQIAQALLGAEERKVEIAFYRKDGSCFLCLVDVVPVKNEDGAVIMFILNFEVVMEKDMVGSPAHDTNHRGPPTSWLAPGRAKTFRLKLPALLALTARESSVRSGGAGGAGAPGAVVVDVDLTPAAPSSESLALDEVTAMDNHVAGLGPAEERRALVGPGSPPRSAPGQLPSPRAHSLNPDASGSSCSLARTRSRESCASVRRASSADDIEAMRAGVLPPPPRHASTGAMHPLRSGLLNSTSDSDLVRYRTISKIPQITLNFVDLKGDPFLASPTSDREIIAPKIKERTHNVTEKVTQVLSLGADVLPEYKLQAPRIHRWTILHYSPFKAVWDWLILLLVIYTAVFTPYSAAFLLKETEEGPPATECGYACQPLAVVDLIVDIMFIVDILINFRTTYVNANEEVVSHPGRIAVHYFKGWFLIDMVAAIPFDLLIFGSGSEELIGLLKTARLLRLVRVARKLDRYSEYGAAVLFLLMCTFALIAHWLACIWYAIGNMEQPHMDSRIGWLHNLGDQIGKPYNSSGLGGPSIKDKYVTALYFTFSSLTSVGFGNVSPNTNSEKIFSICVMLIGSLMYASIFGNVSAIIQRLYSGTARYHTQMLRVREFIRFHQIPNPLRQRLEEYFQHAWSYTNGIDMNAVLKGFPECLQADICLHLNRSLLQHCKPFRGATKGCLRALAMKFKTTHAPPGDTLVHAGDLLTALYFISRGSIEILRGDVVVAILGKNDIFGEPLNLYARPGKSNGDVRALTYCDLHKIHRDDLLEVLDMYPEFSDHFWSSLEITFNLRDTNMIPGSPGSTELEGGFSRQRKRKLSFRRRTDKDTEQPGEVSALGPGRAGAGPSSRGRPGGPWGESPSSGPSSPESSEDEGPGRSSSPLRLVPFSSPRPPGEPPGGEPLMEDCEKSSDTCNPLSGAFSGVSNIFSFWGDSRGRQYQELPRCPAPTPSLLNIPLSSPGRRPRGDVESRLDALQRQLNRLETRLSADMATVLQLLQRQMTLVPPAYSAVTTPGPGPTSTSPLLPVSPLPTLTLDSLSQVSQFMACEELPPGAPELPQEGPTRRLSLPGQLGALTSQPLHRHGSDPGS

Row | SMILES | hERG current change (%, negative = inhibition) at 1uM
1 | Cl.O=S(=O)(c1ccc(F)cc1)N1CCCNCC1 | 5.24%
2 | O=C(Cc1ccc([N+](=O)[O-])cc1)Nc1cc(C(F)(F)F)cc(C(F)(F)F)c1 | 14.1%
3 | CCOC(=O)Cc1csc(NC(=O)c2cccc(OC)c2)n1 | 9.05%
4 | COCCN(C)C(=O)CC1C(=O)NCCN1CC(c1ccccc1)c1ccccc1 (centres unmarked) | 19.1%
5 | O=C(N/C(C(=O)N1CCOCC1)=C(\Sc1ncccn1)c1ccccc1)c1ccccc1 | 3.42%
6 | CN(C)c1ccc(/C=N/NC(=O)c2cc(-c3ccc4c(c3)OCO4)n[nH]2)cc1 | 3.46%
7 | CCn1c2ccccc2c2cc(N=C3SC(CC(=O)Nc4ccccc4OC)C(=O)N3C)ccc21 (centres unmarked) | 3.89%
8 | Cc1ccccc1NC(=O)Cn1nc(-c2ccc(Cl)s2)ccc1=O | 15.6%
9 | Cc1ccc(S(=O)(=O)NCC(=O)N(CC2CCCO2)C(C(=O)NC2CCCC2)C(C)C)cc1 (centres unmarked) | 10.1%
10 | O=C(Nc1cccc(NC(=O)c2ccco2)c1)c1cnccn1 | -1.07%
11 | Cc1ccc(C(C(=O)NC2CCCC2)N2CCCCC2)cc1 (centres unmarked) | 13%
12 | Cl.O=C([C@@H]1Cc2ccccc2CN1)N1CCN(Cc2ccccc2)CC1 | -0.521%
13 | CCOc1ccc(NCc2cccn2-c2nnc(N3CCC(C(=O)NCCCN4CC(C)CC(C)C4)CC3)s2)cc1 (centres unmarked) | -26.6%
14 | Cc1cc(C)c2c(n1)sc1c(-c3ccccc3)c(C#N)c(N)nc12 | -0.899%
15 | CCCCCCCCCCCCN1[C@@H](CC(=O)O)c2cc(F)ccc2S1(=O)=O | -3.57%
16 | COc1ccc(OC)c(CN2CCN(CC(=O)Nc3ccccc3C(=O)NC3CC3)CC2)c1 | -87.6%
17 | Cc1ccc(Cn2nc(C)c(C(=O)NCC(c3cccs3)N3CCOCC3)c2Cl)cc1 (centres unmarked) | 9.19%
18 | O=C(NC(=Nc1nc2ccccc2o1)NC(=O)c1ccccc1)c1ccccc1 | 4.48%
19 | CCN1C(=O)[C@H]2[C@@H](c3ccc(C)cc3)N3C(=O)N(c4cccc(Br)c4)C(=O)[C@@]3(CC(C)C)[C@H]2C1=O | 9.09%
20 | O=c1[nH]c2ccc(S(=O)(=O)N3CCC(Cc4ccccc4)CC3)cc2o1 | 18%
21 | Fc1cc(Br)ccc1NC(=S)Nc1cccnc1 | 6.8%
22 | CCCn1nnnc1-c1cc(Cl)cc(Cl)c1 | -10.4%

Row | SMILES | hERG current change (%, negative = inhibition) at 1uM
23 | COc1ccc(N2CCC(N3CCN(C)C(CCO)C3)CC2)cc1 (centres unmarked) | 13%
24 | Cc1ccc(/C(O)=C2\C(=O)C(=O)N(C)C2c2ccc(F)cc2)cc1 (centres unmarked) | 14.5%
25 | O=C(O)C1[C@H]2C(=O)N(Cc3cccs3)C[C@]23C=C[C@H]1O3 (some centres unmarked) | 5.56%
26 | COc1ccc(Br)cc1CNC(=O)CCNC(=O)Cn1ccc2ccccc2c1=O | -1.56%
27 | N#Cc1cc(C(=O)c2ccccc2O)cn(-c2ccc(Cl)cc2)c1=O | 7.25%
28 | COc1ccc(N2CCN(C(=O)Cn3cnc4c3c(=O)n(C)c(=O)n4C)CC2)cc1 | 12.9%
29 | CCC(=O)N1CCN(c2ccccc2NC(=O)c2cccc(C)c2)CC1 | -9.48%
30 | C=CCn1c(SC(C)C(=O)Nc2ccc(Cl)cn2)nnc1C1CC1 (centres unmarked) | 4.64%
31 | COC(=O)c1ccc(OC(=O)CS(=O)c2ccccc2[N+](=O)[O-])cc1 (centres unmarked) | 26.6%
32 | Cc1ccc(C2=NS(=O)(=O)N(C)C(C(=O)NC3CCCCC3)=C2)cc1 | 10.4%
33 | Cc1cc(SC#N)cc(C)c1NC(=O)CCl | 11.1%
34 | Oc1ccc(N=Cc2cc(Br)c(N3CCOCC3)o2)cc1 | 15.3%
35 | CCOC(=O)CNC(=O)CN1C(=O)CC(c2ccccc2)S(=O)(=O)c2ccccc21 (centres unmarked) | 8.95%
36 | COC(=O)NCC(c1cccnc1)N1CCOCC1 (centres unmarked) | 14.6%
37 | CCCN(CCC)CC(O)COc1ccc([N+](=O)[O-])cc1 (centres unmarked) | -81.4%
38 | CCNc1nc(N)nc(Oc2ccc(OCCOc3ccccc3)nn2)n1 | 8.36%
39 | Cn1nc(C(F)(F)F)cc1C(=O)Nc1ccc(-c2ccno2)cc1 | 16.1%
40 | CS(=O)(=O)c1ccc(Cl)c(NC(=O)CSc2n[nH]c(-c3cccs3)n2)c1 | 1.01%
41 | O=C(CCCOc1ccccc1)Nc1nc2ccccc2[nH]1 | 6%
42 | C=CCn1c(SCc2cccc3ccccc23)nnc1-c1cccnc1 | 4.97%
43 | CCCc1cc(=O)[nH]c(SCC(N)=O)n1 | -1.05%
44 | Cc1cc(C)c(NC(=O)COc2ccc(-n3cnnn3)cc2)c(C)c1 | 6.92%
